Test results reported in PubChem BioAssay AID2100 (National Center for Advancing Translational Sciences (NCATS), 2009).
About 1,200 (0.4%) of roughly 300,000 compounds were called active. This list was built around the results that the source calls inconclusive (neither active nor inactive); the mix of calls is not that of the screen. Calls follow the shape of the dose curve; as a rule, active = well fitted inhibition curve with a large enough effect; inconclusive = small, poorly fitted or top-dose-only effect, or another doubt; inactive = no such curve, though single readings can be large or run the other way. A potency beside an inconclusive call is a rough fit, not a confirmed value.

target: Lysosomal alpha-glucosidase (Homo sapiens) (UniProt P10253); assay: qHTS Assay for Inhibitors and Activators of Human alpha-Glucosidase Cleavage of Glycogen; conditions: recombinant GAA, glycogen substrate, Amplex Red glucose oxidase fluorescence; series mostly up to 76.4 µM
Procedure, shortened: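 Recombinant human enzyme (4 nM); glycogen substrate; 37 C, 40 min, pH 5.0. Readout: coupled glucose oxidase/Amplex Red fluorescence.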
Potency is read from the fitted curve at half-maximal effect.

Row | Compound | Potency
1 | CN(C)CCCCCNCCCNC(=O)/C=N\O | inactive
2 | Oc1c(Br)cc(C2N=C(c3ccccc3)NO2)cc1Br (stereo not drawn) | inconclusive: 28.2 µM [inhibitor, single point]
3 | Cc1ccc(NN=Nc2nc3c([nH]2)c(=O)n(C)c(=O)n3C)cc1 | inconclusive: 39.8 µM [inhibitor, partial curve]
4 | CCOC(=O)N1CCC(NC(=O)CN2C(=O)CSc3nc(C)cc(C)c32)CC1 | inconclusive: 22.4 µM [inhibitor, partial curve]
5 | CC(=O)c1cccc(NC(=O)Nc2cccs2)c1 | inconclusive: 3.14 µM [inhibitor, full curve]
6 | O=C1CCC2S/C(=C/Nc3ccc(C(F)(F)F)cc3)C(=O)N12 (stereo not drawn) | inconclusive: 22.4 µM [inhibitor, partial curve]
7 | CCOC(=O)c1cnc2cc(Cl)c(OC)cc2c1Nc1ccc(Br)cc1C | inconclusive: 11.2 µM [inhibitor, partial curve]
8 | C#CCOc1c(Br)cc(C2C(C(=O)OC)=C(C)NC3=C2C(=O)c2ccccc23)cc1OCC (stereo not drawn) | inactive
9 | COc1cc(C(C#N)N2N=C(c3ccccc3)CC2c2ccccc2)ccc1O (stereo not drawn) | inconclusive: 50.1 µM [activator, single point]
10 | Cc1c(N=Cc2nc3ccccc3[nH]2)c(=O)n(-c2ccccc2)n1C | active: 8.91 µM
11 | COC(=O)C(NNc1ccccc1)(NC(=O)c1ccc(F)cc1)C(F)(F)F (stereo not drawn) | inconclusive: 14 µM [inhibitor, partial curve]
12 | Cc1ccc(NC(=S)NNC(=S)NC2CCCCC2)cc1 | inconclusive: 7.94 µM [inhibitor, partial curve]
13 | O=C(NC1CCCC1)C(c1ccccn1)N(C(=O)c1csnn1)C1CCCC1 (stereo not drawn) | inconclusive: 39.5 µM [inhibitor, single point]
14 | Cc1ccc2nc(-c3ccc(N4CCOCC4)cc3)c(Nc3ccccc3C)n2c1 | inconclusive: 10 µM [inhibitor, partial curve]
15 | CC(=O)[C@@H]1[C@@H](C(=O)c2ccc(C)cc2)[C@]2(C(=O)Nc3ccccc32)[C@H]2C=Cc3cc(F)ccc3N12 | inconclusive: 39.5 µM [activator, single point]
16 | CN1CCN(C(=S)C(=O)Nc2ccc(Br)cc2)CC1 | inactive
17 | CC(C)(C)c1ccc(CNC(=O)c2ccc3c(c2)NC(=O)CO3)cc1 | inactive
18 | COc1ccc2c(N)c(C(=O)NN)[nH]c2c1 | inconclusive: 31.4 µM [inhibitor, single point]
19 | COc1cccc(C2CC(c3cccs3)=NN2C(=O)c2ccco2)c1O (stereo not drawn) | inconclusive: 50.1 µM [inhibitor, single point]
20 | CC(C)(C)c1cc(CNC2CS(=O)(=O)C[C@@H]2O)cc(C(C)(C)C)c1O (stereo partly drawn) | active: 15.7 µM
21 | Cc1c(C)c2c(OCC(=O)NCC(=O)NCC(=O)O)cc3c(c2oc1=O)CCC(C)(C)O3 | inconclusive: 50.1 µM [inhibitor, single point]
22 | O=C1CCN(C(=O)Nc2cccc(Cl)c2)N1 | inconclusive: 31.6 µM [inhibitor, single point]
23 | COC(=O)C1=C(C)NC(=O)/C1=C\c1cc(C)n(-c2ccccc2)c1C | inconclusive: 39.8 µM [activator, single point]

Row | Compound | Potency
24 | O=C(Oc1c(CN2CCOCC2)cc(Cl)c2cccnc12)c1ccccc1Cl | inactive
25 | CCOC(=O)N1CCN(CC(O)c2ccc3c(c2)CCN3)CC1 (stereo not drawn) | inconclusive: 8.84 µM [inhibitor, partial curve]
26 | Oc1ccccc1Nc1nc(NCc2ccccc2)c2ccccc2n1 | active: 7.08 µM
27 | CCOc1cc(/C=N/NC(=O)c2c(-c3ccccc3)noc2C)ccc1O | inconclusive: 35.5 µM [inhibitor, partial curve]
28 | N#Cc1c2ccc(O)cc2n2ccccc12 | inconclusive: 35.5 µM [inhibitor, partial curve]
29 | Cn1c(=O)n(C)c2cc(NS(=O)(=O)c3ccc(Cl)cc3)c(NCc3ccccc3)cc21 | inconclusive: 28.2 µM [inhibitor, partial curve]
30 | O=C(NC1CCCCC1)c1cccnc1C(=O)O | inconclusive: 39.5 µM [inhibitor, single point]
31 | COc1ccc(OC)c(Nc2nc(-c3sc(NC(=O)C(C)(C)C)nc3C)cs2)c1 | inconclusive: 39.5 µM [inhibitor, partial curve]
32 | CCOC(=O)C1=C(CN2CCN(c3ccc(Cl)cc3)CC2)NC(=O)NC1c1ccc(F)cc1 (stereo not drawn) | inconclusive: 5.62 µM [inhibitor, partial curve]
33 | COc1ccccc1CNc1ccc(N2CCCCC2)cc1 | inconclusive: 9.92 µM [inhibitor, partial curve]
34 | Oc1ccccc1-c1nc(NCc2ccco2)c2ccccc2n1 | inactive
35 | CCCCCOC(=O)C1=C(C)N(C)C(=O)NC1c1cc(Br)c(O)c(OC)c1 (stereo not drawn) | inconclusive: 31.4 µM [inhibitor, single point]
36 | COc1ccc(NCN2C(=O)CCC2=O)cc1 | inconclusive: 35.5 µM [inhibitor, partial curve]
37 | COCCCNc1oc(-c2ccc(COc3ccccc3C)o2)nc1C#N | inconclusive: 25.1 µM [inhibitor, partial curve]
38 | COc1cccc(Cn2c(=O)n(-c3cc(C)cc(C)c3)c(=O)c3oc4ccccc4c32)c1 | inactive
39 | CN(C)S(=O)(=O)c1cc(NC(=O)CN2CCN(c3ccccc3O)CC2)ccc1Cl | inconclusive: 20 µM [inhibitor, partial curve]
40 | Cc1cccc(Nc2n[nH]c(=S)s2)c1C | inconclusive: 39.5 µM [inhibitor, partial curve, poor fit]
41 | CCCC1CC(C)(c2csc(Nc3ccc(OCC)cc3)n2)OC1=O (stereo not drawn) | inconclusive: 35.5 µM [inhibitor, partial curve]
42 | O=C(NC(NC(=S)Nc1ccccc1O)C(Cl)(Cl)Cl)c1ccco1 (stereo not drawn) | inconclusive: 39.8 µM [inhibitor, partial curve]
43 | CCCCN(CC)Cc1ccc(CNC(=O)Nc2ccc(Cl)cc2)o1 | inconclusive: 39.8 µM [inhibitor, single point]
44 | Cc1ccc(-c2nc3sccn3c2Nc2ccc(C)c(C)c2)cc1 | inconclusive: 22.4 µM [inhibitor, partial curve]
45 | NNc1nc2sc3c(c2c(=O)n1C1CCCCC1)CCN(Cc1ccccc1)C3 | inconclusive: 17.6 µM [activator, single point]
46 | Cc1cc(C)nc(N/N=C/c2ccc3c(c2)OCCO3)n1 | inconclusive: 35.5 µM [inhibitor, single point]

Row | Compound | Potency
47 | CC(=O)N1CCC(=NNc2ccc(S(=O)(=O)N3CCOCC3)cc2[N+](=O)[O-])CC1 | inconclusive: 11.2 µM [inhibitor, single point]
48 | CCCC(c1nnnn1CCOC)N(Cc1cc2cc(C)c(C)cc2[nH]c1=O)CC1CCCO1 (stereo not drawn) | inactive
49 | COc1ccccc1NC(=O)N1CCCC(C(=O)Nc2cccc(C)c2C)C1 (stereo not drawn) | inconclusive: 56.2 µM [inhibitor, single point]
50 | COc1ccc(NC(=S)NNc2ccc(S(=O)(=O)Nc3ccccc3C(=O)O)cc2[N+](=O)[O-])cc1 | active: 25.1 µM
51 | COc1ccc(NCC(=O)Nc2ccc(Cl)cc2C)c(OC)c1 | active: 15.7 µM
52 | O=c1c(O)cccc2cc(O)c(O)c(O)c12 | active: 14.1 µM
53 | Cc1n[nH]c(=S)n(NC(=O)CC(=O)Nn2c(=S)[nH]nc(C)c2=O)c1=O | inconclusive: 35.5 µM [inhibitor, single point]
54 | Oc1cc(Br)ccc1C=Nc1ccc(N2CCCCC2)cc1 | inconclusive: 1.25 µM [inhibitor, full curve, poor fit]
55 | CSc1ccc(C2Nc3cccc4cccc(c34)N2)cc1 | inconclusive: 3.16 µM [inhibitor, full curve, poor fit]
56 | CCN(C(=O)CN1CCN(c2ccccc2O)CC1)c1c(N)n(Cc2ccccc2)c(=O)[nH]c1=O | active: 9.92 µM
57 | COc1ccccc1C(=O)Oc1ccc(C(c2c(C)[nH][nH]c2=O)c2c(C)[nH][nH]c2=O)cc1 | inconclusive: 15.8 µM [inhibitor, partial curve]
58 | CCOc1ccc(C(=O)NC(Cc2ccccc2)C(=O)OC)cc1 (stereo not drawn) | inconclusive: 6.31 µM [inhibitor, single point]
59 | C/C(CC(=O)N1CCN(C=O)CC1)=N\NC(=O)c1cc2ccccc2cc1O | inconclusive: 35.5 µM [inhibitor, single point]
60 | CCOc1ccc(N(Cc2ccccc2)C(=O)c2nc(S(C)(=O)=O)ncc2Cl)cc1 | inactive
61 | CC(C)(C)c1cc(C(=O)NNc2cccc(Cl)c2)n(Cc2ccccc2)n1 | inconclusive: 12.6 µM [inhibitor, partial curve]
62 | Cc1ccc(NS(=O)(=O)c2ccc3c(c2)oc(=O)n3C)cc1F | inactive
63 | C(=N\Nc1nc(-c2ccccc2)cs1)/c1ccncc1 | inconclusive: 20 µM [inhibitor, partial curve]
64 | CC1CN(C(=O)N2CCC(C(=O)NCCCc3ccccc3)CC2)c2cc(Cl)ccc2O1 (stereo not drawn) | inconclusive: 31.6 µM [activator, partial curve]
65 | O=C1CC(Nc2ccc(N3CCOCC3)cc2)C(=O)N1Cc1ccccc1 (stereo not drawn) | active: 12.6 µM
66 | Cc1cccc(N2CCN(c3nc4nonc4nc3N3CCSCC3)CC2)n1 | active: 10 µM
67 | c1ccc(Nc2nc(-c3ccncc3)nc3ccccc23)cc1 | inactive
68 | O=C(NNc1ccc(-c2csnn2)cc1)c1ccccc1C(F)(F)F | active: 9.92 µM
